In article PMC6919601, “Identification of Plasmodium dipeptidyl aminopeptidase allosteric inhibitors by high throughput screening” (PLoS ONE, 2019):
The whole screen tested about 110,000 compounds, of which about 230 (0.21%) showed an effect of 50% or more. The list shows a part of the results.

Molecular target: DPAP1 (Plasmodium falciparum, UniProt Q8IIJ9)
Test: primary screen, percent inhibition; read by cleavage of a fluorogenic dipeptide substrate; higher = more effect of the substance
Set-up: species or system P. falciparum D10 trophozoite lysates; single well
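Also: 30 min substrate incubation versus DMSO and 10 µM JCP410 controls.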

Chain of DPAP1 (Q8IIJ9 whole entry, looked up): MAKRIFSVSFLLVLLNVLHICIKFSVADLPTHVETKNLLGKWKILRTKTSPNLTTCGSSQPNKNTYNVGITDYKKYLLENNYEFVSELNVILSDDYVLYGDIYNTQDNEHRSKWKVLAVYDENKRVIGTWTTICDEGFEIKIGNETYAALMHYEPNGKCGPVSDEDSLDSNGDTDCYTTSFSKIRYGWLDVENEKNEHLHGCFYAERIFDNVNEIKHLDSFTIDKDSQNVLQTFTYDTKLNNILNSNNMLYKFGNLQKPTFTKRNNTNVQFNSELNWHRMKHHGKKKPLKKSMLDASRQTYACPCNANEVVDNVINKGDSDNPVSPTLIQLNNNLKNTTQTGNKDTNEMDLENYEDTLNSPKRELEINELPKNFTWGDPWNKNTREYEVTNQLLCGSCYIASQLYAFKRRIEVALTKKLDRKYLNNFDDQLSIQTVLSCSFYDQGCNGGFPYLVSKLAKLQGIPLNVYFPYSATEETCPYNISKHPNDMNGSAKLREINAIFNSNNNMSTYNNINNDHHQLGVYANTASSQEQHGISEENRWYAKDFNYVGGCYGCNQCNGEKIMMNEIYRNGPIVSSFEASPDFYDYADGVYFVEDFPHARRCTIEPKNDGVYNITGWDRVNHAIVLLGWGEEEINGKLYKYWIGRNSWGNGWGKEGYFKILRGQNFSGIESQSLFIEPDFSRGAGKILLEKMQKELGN

Row | Compound | % Inhibition @ 10 uM [%]
1 | Cc1nc2ncnn2c(O)c1NS(=O)(=O)c1ccc(CC(C)C)cc1 | -4.47
2 | CC(=O)NS(=O)(=O)c1ccc(NC(=O)c2cc(-c3ccc(C)cc3)nc3ccccc23)cc1 | -13.6
3 | C=CCNC(=O)CCC(=O)c1ccc(OC)cc1 | -5.03
4 | CC(C)[C@H](O)[C@H](NC(=O)OCc1ccccc1)C(=O)NCC#N | -1.5
5 | CCOc1cccc(C(=O)Nc2ccc(Cl)c(-c3nc4ncccc4o3)c2)c1 | -6.83
6 | CC(=O)c1ccc(NC(=O)Cc2ccccc2F)cc1 | -0.318
7 | O=C(Nc1ccc2c(c1)OCO2)C1CCCCC1 | -4.15
8 | CCOc1ccc(CNC(=O)c2cc3c(O)nc4ccccc4c3s2)cc1 | 4.51
9 | O=C(Nc1cccc(-c2cn3ccsc3n2)c1)c1cccc(Cl)c1 | 1.37
10 | CCOc1ccc(NC(=O)C2=C(C)N=C(S)NC2c2cccs2)cc1 (stereo not shown) | -2.48
11 | O=C(Cc1ccccc1)Nc1ccccc1C(=O)Nc1ccc(C(=O)O)cc1 | -3.37
12 | COc1ccc(C)cc1N(CC(=O)N(C)C)S(=O)(=O)c1ccc(C)cc1 | -5.13
13 | COC(=O)c1cc(-c2c[nH]c3ccccc23)[nH]n1 | -3.53
14 | Cc1ccccc1Cn1c(=O)n(CCC(=O)NCc2ccccc2)c(=O)c2sccc21 | 1.82
15 | CCN(CC)c1ncnc2c1[nH]c1ccc(OC)cc12 | -3.24
16 | CN1CCN(C(=O)c2ccc(N(C)C)cc2)CC1 | -7.02
17 | CC(CNCc1c(C(=O)O)n(Cc2cccc(Cl)c2)c2ccccc12)c1ccccc1 (stereo not shown) | 0.277
18 | Cc1ccc(C)c(NC(=O)C(C)Sc2ccccc2)c1 (stereo not shown) | -2.88
19 | Cc1ccccc1OCC(O)Cn1c(SCC(C)C)nc2c1c(=O)[nH]c(=O)n2C (stereo not shown) | 7.2
20 | CCOC(=O)c1ccc2nc(NC(=O)CSc3nc(C)cc(O)n3)sc2c1 | 26.7
21 | CC(Nc1oc(/C=C/c2cccs2)nc1C#N)c1ccccc1 (stereo not shown) | -1.71
22 | COC(=O)C1=C(C)NC(=O)/C1=C\c1cc(C)n(-c2ccc(C)cc2C)c1C | 0.146
23 | CCN(CC)CCNC(=O)Cn1c(=O)c2cccn2c2cccnc21 | -0.995
24 | Cc1ccc(-c2nn(C)c(=O)c3ccccc23)cc1S(=O)(=O)NC(C)c1ccccc1 (stereo not shown) | 1.31
25 | CC(NC(=O)CSc1nc2c(cc1C#N)CN(C)CC2)c1ccccc1 (stereo not shown) | -1.38

Row | Compound | % Inhibition @ 10 uM [%]
26 | COc1cc(N2CCCC2)c(OC)cc1/C=C1\NC(=O)N(Cc2ccccc2)C1=O | -0.469
27 | CC(=O)c1ccccc1-c1cccc(C(=O)N[C@@H](CC(C)C)C(=O)NCC#N)c1 | -3.48
28 | O=C1Nc2cccnc2Sc2ccccc21 | 3.29
29 | O=C(Nc1ccccc1)n1c(=O)oc2cc(Br)ccc21 | 7.66
30 | CN1CCN(c2nc3c(N)ncnc3n2CC(O)CO)CC1 (stereo not shown) | -0.0217
31 | Cc1cc(C)c(-c2c(NCCc3ccc(Cl)cc3)c(=O)c2=O)cc1C | -4.96
32 | C=CCO/C(O)=C1/C(C)=Nc2ncnn2C1c1ccccc1OC (stereo not shown) | -7.08
33 | C1=CC2CC1CC2CN1CCc2c([nH]c3ccccc23)C1 (stereo not shown) | -2.95
34 | COc1ccc(-c2noc(CSc3nnc(-c4ccncc4)n3C)n2)cc1 | 6.01
35 | O=C(CCC1CCCCC1)NC1(C(F)(F)F)C(=O)Nc2c1c(=O)[nH]c(=O)n2Cc1ccccc1 (stereo not shown) | -4.85
36 | CCCNc1nc(N)nc(-c2cc(Cl)ccc2OC)n1 | -4.86
37 | CCOc1ccc(CCNC(=O)C2CCCN(S(=O)(=O)N3CCOCC3)C2)cc1OCC (stereo not shown) | -1.67
38 | O=C(CSc1nnc(-c2ccc(Cl)s2)o1)NC1CCCCC1 | 3.44
39 | CCC(C)NC(=O)CN(c1ccc(F)cc1)S(C)(=O)=O (stereo not shown) | 2.03
40 | Cc1ccc(CNC(=O)CSCc2cnn(-c3ccccc3)c2-n2cccc2)cc1 | -2.85
41 | COc1cc(CN(CC2CCCO2)C(=O)c2ccc(Br)cc2)cc(OC)c1OC (stereo not shown) | 5.54
42 | CCOC(=O)c1c(CNCCN(CC)CC)n(C)c2cc(Br)c(O)cc12 | -4.24
43 | COc1ccc(CCNC(=O)C2=Cc3sc4c(c3CS2)CCCC4)cc1OC | 13.1
44 | CN(C(=O)NCc1noc2ccccc12)C1CCCCC1 | 0.0244
45 | O=C(Nc1ccccc1-c1nc2ccccc2s1)c1ccc(F)c(F)c1 | -2.15
46 | COc1cc2c(cc1OC)C1C(C(=O)N3CCN(c4ccccn4)CC3)c3ccccc3C(=O)N1CC2 (stereo not shown) | 5.74
47 | CCCC1=C(C(=O)OCC)C(c2ccc(Cl)c(Cl)c2)C(C#N)=C(N)O1 (stereo not shown) | 1.96
48 | COC(=O)c1cc(S(=O)(=O)NCCc2ccc(Cl)cc2)c[nH]1 | 0.867
49 | O=C(CCCN1C(=O)CSc2ncccc21)NCc1ccc(Cl)cc1 | -2.37
